# Test results as given in ChEMBL document CHEMBL4888484, “Replenishing the malaria drug discovery pipeline: Screening and hit evaluation of the MMV Hit Generation Library 1 (HGL1) against asexual blood stage Plasmodium falciparum ,using a nano luciferase reporter read-out” (2022).
# About 540 (0.36%) of roughly 150,000 compounds showed an effect of 50% or more. Some of the results follow.
# Test system: Plasmodium falciparum
# Experiment: Primary screen in NF54 nanoGlo assay, in single point, at 2uM, 72h; a lower Z score goes with more inhibition
# Format: functional, Erythrocyte
# Details: timepoint 72 hour
Compound,% Inhibition,Z score
CCn1c(CC2CCN(c3noc(C(C)C)n3)CC2)nn(C)c1=O,-7%,0.99
COc1ccc(-c2noc(CCC(=O)Nc3nnc(C(C)C)s3)n2)cc1OC,-3%,0.48
Cn1nncc1CN1CCN(Cc2cccc(Cl)c2Cl)CC1,-8%,1.25
Cc1ccc(C(=O)CCCN2C[C@@H]3CC[C@H]2CN(C(=O)N(C)C)C3)cc1,-24%,3.44
CNc1ccc(C(=O)N[C@H]2CC[C@H](CO)CC2)cn1,-11%,1.32
CC(C)(C)n1nc(-c2ccccc2)c(NC(=O)NC2CCCCC2)c1N,-8%,1.23
COCCCNC(=O)Nc1cc(Cl)c(OC)c(Cl)c1,1%,-0.22
CCCc1nc(Cn2nnc(C3CC3)n2)no1,-8%,1.5
Fc1ccccc1-c1cc(NCCCn2ccnn2)n2nccc2n1,-6%,1.16
Cc1[nH]c2c(ccc3cccnc32)c1C1C(CC(N)=O)C1(C)C (stereo unspecified),8%,-1.13
CCNC(=O)NC(=O)[C@H](C)Nc1cccc(C(=O)NC)c1,0%,-0.08
C=CCO[C@H]1[C@H](NC(=O)COC)c2ccccc2C12CCN(Cc1[nH]c3c(C)cccc3c1C)CC2,-8%,1.63
CCn1nccc1-c1csc(S(=O)(=O)Nc2cc(C)ccc2C)c1,-14%,1.73
CCCn1cc(-c2ccnc(N[C@@H](C)c3cnn(C)c3C)n2)c(C)n1,-19%,2.46
CC[C@@H](C(=O)NCc1ccccc1)n1cnc2onc(-c3ccc(Cl)cc3)c2c1=O,-6%,0.85
CN(Cc1cc(C(F)(F)F)ccc1Cl)[C@H]1CCc2nn(C)c(=O)n2CC1,37%,-4.92
O=C(NC1CC1)c1ccc(S(=O)(=O)NC[C@H](O)c2ccccc2)cc1,-15%,2.64
CCc1nc2ccccc2c(C(=O)N2CCN(c3cc(OC)ncn3)CC2)c1C,-13%,1.69
CC(C)[C@@H]1NC(=O)N(Cc2nccn2CC(F)(F)F)C1=O,3%,-0.4
CC(=O)N1C[C@]23C=C[C@H](C[C@H]2CC12CCCCC2)O3,-8%,1.03
Cc1ccc(NC(=O)N[C@@H](C(C)(C)C)C(F)(F)F)cc1,2%,-0.25
C=Cn1cc(CN2CC[S+]([O-])CC(C)C2)cn1 (stereo unspecified),2%,-0.24

Compound,% Inhibition,Z score
CCN(C(=O)c1ccnc(C2CC2)c1)[C@@H](C)CS(C)(=O)=O,-4%,0.89
Cc1cc(-c2cccc(C(=O)N3CCN(CCO)CC3)c2)nc(C)c1C#N,-8%,0.85
Cc1cc(C(=O)NCC[C@H](O)c2ccco2)no1,-5%,0.82
CCOC(=O)N1CCN(C(=O)Cn2nc(C3CC3)ccc2=O)CC1,5%,-0.6
NC(=O)C[C@H](NC(=O)NCc1ccco1)C1CCOCC1,-4%,0.61
Cc1ccc(C(=O)NC2(C(F)F)CC2)cn1,10%,-1
CCOc1cc(N(C)Cc2c(C)noc2C)ncn1,-7%,0.77
CC1CC(C)C(C)N(S(=O)(=O)c2ccco2)C1 (stereo unspecified),-8%,0.97
COc1ccc(S(=O)(=O)NC[C@H]2O[C@@H](CO)[C@@H](O)[C@H]2N(C)Cc2ccccc2)cc1,-3%,0.35
C[C@H]1[C@@H](C(F)(F)F)OCCN1C(=O)c1ccc(C2CC2)nc1O,-13%,2.5
Cn1ccnc1CN(CCO)C(=O)Cc1cccnc1,-8%,1.1
N#Cc1c(N)nc2c(c1-c1cccc(O)c1)CCc1[nH]ccc1-2,-13%,1.45
Cc1ccc(O)c(S(=O)(=O)N2CCN(C(=O)NC3CCN(c4ccc(C#N)cc4)CC3)CC2)c1,-10%,1.14
CC(C)OCC(O)CN(Cc1cccc(F)c1)CC1CC(c2ccccc2)=NO1 (stereo unspecified),5%,-0.49
CCN(C)C1(CNC(=O)c2ccncc2Cl)CCCC1,3%,-0.33
O=C(CCNC(=O)C1CCCC1)NC1CC1,-20%,1.88
CC(C)c1nc(-c2noc(-c3ncn(C(C)(C)C)n3)n2)cs1,4%,-0.84
CC(c1ccc(Cl)cc1)C(C)N(C)C(=O)NCCS(C)(=O)=O (stereo unspecified),-5%,0.48
OC1(c2ccc(-c3ccccc3)cc2)CCNCC1,-12%,1.7
CC(=O)Nc1cc(NCc2nc(C)cs2)ccc1Cl,-8%,0.82
O[C@@H](Cn1nnnc1CCCc1ccccc1)C(F)(F)F,-4%,0.75
